Assay results published in the supplement of paper PMC11417369.
This is one part of the list.

Tested on: PfSIP2 AP2 domain 1 (GST-tagged)
Assay: gcPBM binding intensity (ln(normalized median fluorescence intensity)); higher = stronger DNA binding
How it was run: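 Probes on an Agilent 4 × 180k array were primer-extended, double-stranded and 36 bp long, taken from intergenic genomic regions, with negative controls added. GST-tagged P. falciparum DNA-binding domains from E. coli, about 25 μg on average, were applied to the array for 1 h in 1× PBS containing 1% milk, 0.2 mg/ml BSA, 0.5% salmon testes DNA and 0.03% Triton X-100. Binding intensity, obtained after Alexa488 anti-GST antibody detection and a 488 nm scan, is the highest Masliner-normalised natural-log median intensity across replicate spots of either probe orientation.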

Sequence | gcPBM binding intensity (ln)
AAATTATGTGCCAATACACACACACCGATATATATA [CACACA_site8050] | 7.44
TTCTTAGATTGTACAGTACACACCTTTAGAATGTTA [CACACA_site212] | 7.06
AATTCATTTTACCCATGTACACAATTATATTTTATA [XGTACX_site4127] | 7.23
TACTACCACGGACATGCATGCACATTATTACTCTAA [TGCATGCA_site313] | 7.3
AAGAAAAAATGATGAATAGAGATCAAATCTATATAT [TGCATGCA_negctrl_site29] | 6.72
TTTTGTTACTTTTATGTGCACTTATAAAACGAACTA [GTGCAC_site9551] | 10.3
GACTTTTCAATTTTTCGTACGTATAAATTGTATACA [XGTACX_site1488] | 7.24
TTTTTATTGTTGTACTTATATTATTTTATTATTAAA [GTGCAC_negctrl_site200] | 7.31
CTAATATATATCAATTGTACATATTGAATAAGAACA [XGTACX_site4541] | 7.03
TTTTGAAGTAACAAATAAATAAATAAATATATAAAA [GTGCAC_negctrl_site517] | 6.92
ATTCATTCATATGTTACACACACACCGACACATAAA [CACACA_site5749] | 7.45
TATTAAACTGGACACACACACACACCCATATATAAA [CACACA_site4579] | 7.47
AAAATAATCACATATTGTACAAAAAAATTTATTAAA [XGTACX_site3239] | 6.83
TATATTAATATGAAAAGTACACATTCTATATATATA [XGTACX_site929] | 8.05
ACATAATTTGATAATACACACAAATAATCTAAAATT [CACACA_site129] | 7.02
AAAAAAAAAAAAAAATGTACCCATATATAAATATAT [XGTACX_site4061] | 7.25
AAAAAATGGATGATCACACACTTCATAAAAATTGCA [CACACA_site5256] | 6.61
TTTAATTATAAAACGTGTACATAATTATAATTACAT [XGTACX_site2206] | 7.07
ATCATTTGCTCACGCACACACACATAAAAAGAAAAA [CACACA_site4349] | 7.51

Sequence | gcPBM binding intensity (ln)
ATTATGTACAAAATGGTGCAATATTATACATATATA [GTGCAC_site9468] | 10.4
AAAAATAGTATAAGTAGTACAACTGAAAAGTTATGT [XGTACX_site7488] | 6.92
ACTACATTATGTCATACATGCATACATACGTGGTTT [TGCATGCA_site732] | 7.15
AGTAATTTAAGGAATACACACAAGAAAAAAATAAGA [CACACA_site6177] | 7.27
CATTAAAAGTATAATTGTACTTTTCATTTATATATT [XGTACX_site7536] | 6.92
TTCTCAAAATTAAAATAACAGATTAACGAACTAACG [CACACA_negctrl_site1720] | 6.92
TAATATATATATATATGTACATATATATTATGTATA [XGTACX_site4690] | 7.19
AGATTATTTAGAATGTGTACATATTACACATACATG [XGTACX_site8634] | 7.3
CATACATACAAACACACACACACACCCATATATATA [CACACA_site2918] | 7.62
GTATACCTTTTGACATGTACGTATGTATATTTGGGT [XGTACX_site720] | 7.28
TTTTTAACCAAACATCAAAACATATTTTTTTGTTAT [CACACA_negctrl_site385] | 6.87
ATTATAATGTTAATGTGTACATATGATTCCTTAATT [XGTACX_site181] | 7.27
TATGTTTTTACATATTGTACATATTCTTGTAATACG [XGTACX_site1179] | 7.19
TATGTGTGCAAAAACTGTACACATTAAAGGTATATA [XGTACX_site7627] | 7.54
TACTTTCAAAAGATCACACATATATATATATATATA [CACACA_site5630] | 9.6
TAATAACATACAGACACACACGTAAAAGCACGTGTA [CACACA_site4299] | 6.87
ATAAATAAATAAGTACATATATATATGTATATATAT [TGCATGCA_negctrl_site223] | 7.92
ATGACATGTTCTAAATGTACATTTTTTAACCCTTTT [XGTACX_site1858] | 6.79
TATGGTTACATTATATGTACTAAACGAATATTTTTA [XGTACX_site5694] | 6.85

Sequence | gcPBM binding intensity (ln)
TATACAAGTATATAGGTGCATATATAAGTATATATT [GTGCAC_site9994] | 10.3
CATAGATACATACACGCACACACATATATATATATA [CACACA_site13] | 9.23
GTATTACCTTATTATTGTACTTTCATGATATATATG [XGTACX_site5382] | 7.19
TTAATGAATGGACACACACACATATATATATATATT [CACACA_site5294] | 7.5
TACACAAGAAAATTCACACACACACCCATATATATA [CACACA_site3879] | 7.53
AACATACATGTATATAGTACATATTACATCTGATAC [XGTACX_site3649] | 6.98
CATATAAAAGGACACACACACACATATAAATATGTA [CACACA_site6568] | 7.24
TGCTATTTTATTTATTCTTTTATAAAAGTATAATAT [XGTACX_negctrl_site358] | 7.14
ATTTTTATAGAATGAACACACATATTATAGCATTTA [CACACA_site6842] | 6.88
ATAAAAAAAATTTGCACACCTTCAAAGTAATATATA [CACACA_site1584] | 7.35
TAATTTTTTTTTTTTTTTTTTGTACTTCATTTTTAT [CACACA_negctrl_site1395] | 7.03
AAAAAAAAAAAAAGTACATGCAATATGGATCTTAAA [TGCATGCA_site367] | 7.06
AACATTCTAAAACACACACACACATATATATATATA [CACACA_site1052] | 9.1
TACACAAGCGGACACACACACATATATATATATATA [CACACA_site4832] | 9.83
TATATATAAAAAAGCACACATACATACATACATAAT [CACACA_site890] | 6.95
TTTTCACTTTTAAAAACATGCATACTTTATAAAATA [TGCATGCA_site967] | 7.27
AAAAAAAAAAAACACACACACACATAAATATATATA [CACACA_site149] | 7.36
TATTAACATATATAAAGTACATTAAACAACATTGTA [XGTACX_site7667] | 6.99
